Experimental data reported in patent publication US9556117B2, “Indole carboxamide derivatives as P2X7 receptor antagonists” (ACTELION PHARMACEUTICALS LTD, priority 2012, dated 2017).

target: human recombinant P2X7 receptor (Homo sapiens (Human), UniProt Q99572); assay: YO-PRO1 assay, P2X7 receptor antagonistic activity; details: HEK-293 cells expressing human recombinant P2X7 receptor; YO-PRO-1 fluorescence; ATP 250 μM for 90 minutes
Sequence of UniProt Q99572 (Q99572 whole entry): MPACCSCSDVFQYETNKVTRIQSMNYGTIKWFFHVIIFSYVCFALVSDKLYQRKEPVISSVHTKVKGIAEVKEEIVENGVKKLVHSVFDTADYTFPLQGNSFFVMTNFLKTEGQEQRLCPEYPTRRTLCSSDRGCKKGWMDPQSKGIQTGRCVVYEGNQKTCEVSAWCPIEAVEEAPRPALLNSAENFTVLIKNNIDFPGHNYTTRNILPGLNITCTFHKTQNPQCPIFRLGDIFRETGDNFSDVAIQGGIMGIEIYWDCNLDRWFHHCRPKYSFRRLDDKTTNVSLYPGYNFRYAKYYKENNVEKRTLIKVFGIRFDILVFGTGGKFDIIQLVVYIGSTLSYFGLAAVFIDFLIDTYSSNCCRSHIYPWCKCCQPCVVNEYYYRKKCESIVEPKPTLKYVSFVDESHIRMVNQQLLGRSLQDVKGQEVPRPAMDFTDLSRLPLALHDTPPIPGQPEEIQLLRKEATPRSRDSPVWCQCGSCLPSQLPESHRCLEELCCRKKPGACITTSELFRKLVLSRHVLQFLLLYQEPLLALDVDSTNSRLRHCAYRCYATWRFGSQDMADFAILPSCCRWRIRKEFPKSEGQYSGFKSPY

Compound	IC50
Cc1c(C(=O)NCC2(O)CCC(F)(F)CC2)ccc2[nH]ccc12 [Example 64, 4-Methyl-1H-indole-5-carboxylic acid (4,4-difluoro-1-hydroxy-cyclohexylmethyl)-amide]	51 nM
CCc1c(C(=O)NCC2(O)CCC(F)(F)CC2)ccc2[nH]ccc12 [Example 65, 4-Ethyl-1H-indole-5-carboxylic acid (4,4-difluoro-1-hydroxy-cyclohexylmethyl)-amide]	79 nM
CC(=O)c1cc(C(=O)NCC2(O)CCC(F)(F)CC2)c(Cl)c2cc[nH]c12 [Example 66, 7-Acetyl-4-chloro-1H-indole-5-carboxylic acid (4,4-difluoro-1-hydroxy-cyclohexylmethyl)-amide]	24 nM
CC(C)(O)c1cc(C(=O)NCC2(O)CCC(F)(F)CC2)c(Cl)c2cc[nH]c12 [Example 68, 4-Chloro-7-(1-hydroxy-1-methyl-ethyl)-1H-indole-5-carboxylic acid (4,4-difluoro-1-hydroxy-cyclohexylmethyl)-amide]	7.2 nM
Cc1cc(C(=O)NCC2(O)CCCCC2)c(C(F)(F)F)c2cc[nH]c12 [Example 69, 7-Methyl-4-trifluoromethyl-1H-indole-5-carboxylic acid (1-hydroxy-cyclohexylmethyl)-amide]	10 nM
Cc1cc(C(=O)NCC2(O)CCC(F)(F)CC2)c(C(F)(F)F)c2cc[nH]c12 [Example 70, 7-Methyl-4-trifluoromethyl-1H-indole-5-carboxylic acid (4,4-difluoro-1-hydroxy-cyclohexylmethyl)-amide]	10 nM
Cc1c(C(=O)NCC2(O)CCCCC2)cc(C)c2[nH]ccc12 [Example 71, 4,7-Dimethyl-1H-indole-5-carboxylic acid (1-hydroxy-cyclohexylmethyl)-amide]	12 nM
CCc1cc(C(=O)NCC2(O)CCCCC2)c(Cl)c2cc[nH]c12 [Example 72, 4-Chloro-7-ethyl-1H-indole-5-carboxylic acid (1-hydroxy-cyclohexylmethyl)-amide]	4.1 nM
CCc1cc(C(=O)NCC2(O)CCC(F)(F)CC2)c(Cl)c2cc[nH]c12 [Example 73, 4-Chloro-7-ethyl-1H-indole-5-carboxylic acid (4,4-difluoro-1-hydroxy-cyclohexylmethyl)-amide]	4.2 nM
Cc1c(C(=O)NCC2(O)CCCCC2)cc(Cl)c2[nH]ccc12 [Example 74, 7-Chloro-4-methyl-1H-indole-5-carboxylic acid (1-hydroxy-cyclohexylmethyl)-amide]	17 nM
Cc1c(C(=O)NCC2(O)CCC(F)(F)CC2)cc(Cl)c2[nH]ccc12 [Example 75, 7-Chloro-4-methyl-1H-indole-5-carboxylic acid (4,4-difluoro-1-hydroxy-cyclohexylmethyl)-amide]	9.5 nM
COc1cc(C(=O)NCC2(O)CCCCC2)c(Cl)c2cc[nH]c12 [Example 76, 4-Chloro-7-methoxy-1H-indole-5-carboxylic acid (1-hydroxy-cyclohexylmethyl)-amide]	2.9 nM
COc1cc(C(=O)NCC2(O)CCC(F)(F)CC2)c(C)c2cc[nH]c12 [Example 77, 7-Methoxy-4-methyl-1H-indole-5-carboxylic acid (4,4-difluoro-1-hydroxy-cyclohexylmethyl)-amide]	21 nM
COc1cc(C(=O)NCC2(O)CCCCC2)c(C)c2cc[nH]c12 [Example 78, 7-Methoxy-4-methyl-1H-indole-5-carboxylic acid (1-hydroxy-cyclohexylmethyl)-amide]	21 nM
CCOc1cc(C(=O)NCC2(O)CCCCC2)c(Cl)c2cc[nH]c12 [Example 79, 4-Chloro-7-ethoxy-1H-indole-5-carboxylic acid (1-hydroxy-cyclohexylmethyl)-amide]	6.1 nM
O=C(NCC1(O)CCC(F)(F)CC1)c1cc(O)c2[nH]ccc2c1Cl [Example 80, 4-Chloro-7-hydroxy-1H-indole-5-carboxylic acid (4,4-difluoro-1-hydroxy-cyclohexylmethyl)-amide]	100 nM

Compound	IC50
CCOc1cc(C(=O)NCC2(O)CCC(F)(F)CC2)c(Cl)c2cc[nH]c12 [Example 81, 4-Chloro-7-ethoxy-1H-indole-5-carboxylic acid (4,4-difluoro-1-hydroxy-cyclohexylmethyl)-amide]	5.4 nM
CCCc1cc(C(=O)NCC2(O)CCCCC2)c(Cl)c2cc[nH]c12 [Example 82, 4-Chloro-7-propyl-1H-indole-5-carboxylic acid (1-hydroxy-cyclohexylmethyl)-amide]	3.8 nM
CCCc1cc(C(=O)NCC2(O)CCC(F)(F)CC2)c(Cl)c2cc[nH]c12 [Example 83, 4-Chloro-7-propyl-1H-indole-5-carboxylic acid (4,4-difluoro-1-hydroxy-cyclohexylmethyl)-amide]	3.3 nM
CC(C)(C)OCCOc1cc(C(=O)NCC2(O)CCCCC2)c(Cl)c2cc[nH]c12 [Example 84, 7-(2-tert-Butoxy-ethoxy)-4-chloro-1H-indole-5-carboxylic acid (1-hydroxy-cyclohexylmethyl)-amide]	25 nM
CC(C)(C)OCCOc1cc(C(=O)NCC2(O)CCC(F)(F)CC2)c(Cl)c2cc[nH]c12 [Example 85, 7-(2-tert-Butoxy-ethoxy)-4-chloro-1H-indole-5-carboxylic acid (4,4-difluoro-1-hydroxy-cyclohexylmethyl)-amide]	30 nM
O=C(NCC1(O)CCCCC1)c1cc(OCCO)c2[nH]ccc2c1Cl [Example 86, 4-Chloro-7-(2-hydroxy-ethoxy)-1H-indole-5-carboxylic acid (1-hydroxy-cyclohexylmethyl)-amide]	6.7 nM
O=C(NCC1(O)CCC(F)(F)CC1)c1cc(OCCO)c2[nH]ccc2c1Cl [Example 87, 4-Chloro-7-(2-hydroxy-ethoxy)-1H-indole-5-carboxylic acid (4,4-difluoro-1-hydroxy-cyclohexylmethyl)-amide]	7.3 nM
CC(=O)c1cc(C(=O)NCC2(O)CCCCC2)c(Cl)c2cc[nH]c12 [Example 88, 7-Acetyl-4-chloro-1H-indole-5-carboxylic acid (1-hydroxy-cyclohexylmethyl)-amide]	25 nM
CC(C)(O)c1cc(C(=O)NCC2(O)CCCCC2)c(Cl)c2cc[nH]c12 [Example 89, 4-Chloro-7-(1-hydroxy-1-methyl-ethyl)-1H-indole-5-carboxylic acid (1-hydroxy-cyclohexylmethyl)-amide]	8.3 nM
O=C(NCC1(O)CCCCC1)c1cc(F)c2[nH]ccc2c1F [Example 90, 4,7-Difluoro-1H-indole-5-carboxylic acid (1-hydroxy-cyclohexylmethyl)-amide]	563 nM
O=C(NCC1(O)CCC(F)(F)CC1)c1cc(F)c2[nH]ccc2c1F [Example 91, 4,7-Difluoro-1H-indole-5-carboxylic acid (4,4-difluoro-1-hydroxy-cyclohexylmethyl)-amide]	701 nM
COc1cc(C(=O)NCC2(O)CCCCC2)c(F)c2cc[nH]c12 [Example 92, 4-Fluoro-7-methoxy-1H-indole-5-carboxylic acid (1-hydroxy-cyclohexylmethyl)-amide]	45 nM
COc1cc(C(=O)NCC2(O)CCC(F)(F)CC2)c(F)c2cc[nH]c12 [Example 93, 4-Fluoro-7-methoxy-1H-indole-5-carboxylic acid (4,4-difluoro-1-hydroxy-cyclohexylmethyl)-amide]	70 nM
CCOCCc1cc(C(=O)NCC2(O)CCC(F)(F)CC2)c(Cl)c2cc[nH]c12 [Example 94, 4-Chloro-7-(2-ethoxy-ethyl)-1H-indole-5-carboxylic acid (4,4-difluoro-1-hydroxy-cyclohexylmethyl)-amide]	9.4 nM
COC(C)(C)c1cc(C(=O)NCC2(O)CCC(F)(F)CC2)c(Cl)c2cc[nH]c12 [Example 95, 4-Chloro-7-(1-methoxy-1-methyl-ethyl)-1H-indole-5-carboxylic acid (4,4-difluoro-1-hydroxy-cyclohexylmethyl)-amide]	9.3 nM
